In article PMC3591366, “MUC1* Ligand, NM23-H1, Is a Novel Growth Factor That Maintains Human Stem Cells in a More Naïve State” (PLoS ONE, 2013):

B1: NM23-H1_(S120G)-hexamer (natural protein)
chain: not shown
notes: differs in the multimer state (predominantly hexamer); also called NM23_(S120G)-hexamer; NM23-H1 S120G (soluble fraction)
B2: NM23-H1_(S120G)-dimer (natural protein)
chain: not shown
notes: differs in the multimer state (primarily dimer); also called NM23_(S120G)-dimer; NM23-H1 dimer

Biological target: the molecule itself
Experiment: SEC + native gel or EMSA; multimer state of purified NM23-H1 preparations by size exclusion chromatography, native gel (5 and 10 ug protein per well) and Western blot

Protein | stoichiometry N
B1 | 6
B2 | 2
